Data from the supplement of paper PMC7826260.
The other results are listed elsewhere or left out. Cleavage of a single-stranded DNA pool by Rep nickase domains was read by sequencing for 1 h at 37 °C with 3 µM enzyme; only the middle of the 90-letter strands is printed. The score is log2 (uncut reads / reads without enzyme); the lower, the more was cut; hits are not called. Counts are relative to all reads; where an enzyme cuts many sequences, the uncut ones exceed 0.

Columns and labels:
Assay in all cases: uncleaved DNA left, log2 of reads against the no-enzyme library (log2 ratio); higher = less cleavage (more negative = more Rep cleavage of the k-mer); sequences stand for … in CTCGTCCG…ACCGGAGA
[1] = tested on: T1, Rep nickase domain of Muscovy duck circovirus
T1 sequence (residues 1-111, tag not shown): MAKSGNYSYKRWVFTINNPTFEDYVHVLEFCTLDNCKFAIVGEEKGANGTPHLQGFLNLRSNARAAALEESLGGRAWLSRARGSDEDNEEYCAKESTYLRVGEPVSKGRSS
Protocol: (§1)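 A pool of 90-nt single-stranded DNAs with seven random bases just before the constant AC of the nick site (name = the seven bases) was cut by 3 µM recombinant His6-SUMO-tagged Rep nickase domain (300 nM DNA, 50 mM HEPES pH 8.0, 50 mM NaCl, 1 mM MnCl2, 1 h, 37 °C, three replicates). Uncut DNA was amplified and sequenced.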

[2] = tested on: T2, Rep nickase domain of banana bunchy top virus
T2 sequence (residues 1-94, tag not shown): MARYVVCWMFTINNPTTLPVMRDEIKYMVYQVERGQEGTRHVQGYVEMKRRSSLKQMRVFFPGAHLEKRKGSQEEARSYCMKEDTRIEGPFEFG
Protocol: as §1

[3] = tested on: T3, Rep nickase domain of cabbage leaf curl virus
T3 sequence (residues 1-116, tag not shown): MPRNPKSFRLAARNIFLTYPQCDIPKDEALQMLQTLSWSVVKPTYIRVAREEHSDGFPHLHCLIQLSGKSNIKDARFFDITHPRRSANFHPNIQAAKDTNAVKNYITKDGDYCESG
Protocol: as §1

[4] = tested on: T4, Rep nickase domain of chickpea chlorotic dwarf virus
T4 sequence (residues 1-124, tag not shown): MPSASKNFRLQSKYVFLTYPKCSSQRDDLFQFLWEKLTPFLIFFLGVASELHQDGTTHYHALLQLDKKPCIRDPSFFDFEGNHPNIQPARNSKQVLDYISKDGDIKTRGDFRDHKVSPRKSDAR
Protocol: as §1

[5] = tested on: T5, Rep nickase domain of faba bean necrotic yellows virus
T5 sequence (residues 1-98, tag not shown): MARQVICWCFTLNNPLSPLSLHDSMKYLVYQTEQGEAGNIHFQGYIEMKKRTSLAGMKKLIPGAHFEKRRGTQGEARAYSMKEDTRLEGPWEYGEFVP
Protocol: as §1

[6] = tested on: T6, Rep nickase domain of maize striate mosaic virus
T6 sequence (residues 1-117, tag not shown): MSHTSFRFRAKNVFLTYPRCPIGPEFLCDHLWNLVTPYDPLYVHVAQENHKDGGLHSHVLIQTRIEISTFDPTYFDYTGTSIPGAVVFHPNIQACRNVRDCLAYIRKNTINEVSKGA
Protocol: as §1

[7] = tested on: T7, Rep nickase domain of porcine circovirus 2
T7 sequence (residues 2-116, tag not shown): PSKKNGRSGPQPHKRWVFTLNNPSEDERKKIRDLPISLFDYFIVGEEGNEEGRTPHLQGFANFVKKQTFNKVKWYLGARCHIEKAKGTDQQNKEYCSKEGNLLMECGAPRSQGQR
Protocol: as §1

[8] = tested on: T8, Rep nickase domain of tomato yellow leaf curl virus
T8 sequence (residues 1-136, tag not shown): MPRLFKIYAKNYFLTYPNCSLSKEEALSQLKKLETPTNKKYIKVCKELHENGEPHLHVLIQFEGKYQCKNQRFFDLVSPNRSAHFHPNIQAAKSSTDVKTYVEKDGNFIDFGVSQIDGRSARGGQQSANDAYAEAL
Protocol: as §1

[9] = tested on: T9, Rep nickase domain of wheat dwarf virus
T9 sequence (residues 1-137, tag not shown): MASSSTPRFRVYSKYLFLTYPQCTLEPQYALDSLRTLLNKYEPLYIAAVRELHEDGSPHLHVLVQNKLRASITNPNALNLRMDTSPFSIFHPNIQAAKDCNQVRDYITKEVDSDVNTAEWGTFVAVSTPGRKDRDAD
Protocol: as §1

Row | Sequence | uncleaved DNA left (log2) [1] | uncleaved DNA left (log2) [2] | uncleaved DNA left (log2) [3] | uncleaved DNA left (log2) [4] | uncleaved DNA left (log2) [5] | uncleaved DNA left (log2) [6] | uncleaved DNA left (log2) [7] | uncleaved DNA left (log2) [8] | uncleaved DNA left (log2) [9]
1 | GTTGAAA | 0.145 | 0.149 | 0.347 | 0.929 | 0.0865 | 1.9 | 0.237 | 0.0871 | 0.146
2 | CAGATTT | 0.03 | -3.11 | -0.896 | -2.89 | -2.29 | -0.445 | -4.1 | -0.00773 | -0.315
3 | GTGCCAC | -0.0915 | 0.0958 | 0.373 | 1.01 | -0.0497 | 1.74 | 0.135 | 0.0942 | 0.0362
4 | TCGTGAC | -0.093 | -0.0339 | 0.298 | 0.586 | -0.0298 | 0.442 | -0.0476 | -0.0165 | -0.0313
5 | AATCCTA | -0.166 | 0.0242 | -0.0904 | -1.99 | -0.0956 | -0.732 | -0.321 | 0.0175 | -0.0987
6 | TAATAAA | -0.327 | 0.00271 | -2.32 | -2.53 | 0.133 | -0.83 | -0.425 | 0.0912 | -1.14
7 | GACTGTC | 0.0743 | -0.0084 | 0.0681 | 0.557 | 0.103 | 0.892 | -0.119 | -0.00796 | 0.0831
8 | GGCGCCG | -0.0075 | 0.0503 | -0.095 | -0.0143 | 0.0962 | -0.0083 | 0.116 | -0.00882 | 0.0488
9 | TCGAGCT | -0.0337 | -0.0686 | 0.101 | -0.0249 | 0.0087 | 0.228 | -0.18 | -0.0589 | -0.0346
10 | AAGGCCC | 0.151 | 0.0103 | 0.062 | 0.245 | 0.051 | -0.031 | 0.0973 | -0.0575 | -0.017
11 | GCCCCCA | -0.153 | 0.0264 | 0.257 | -0.0344 | -0.0187 | 0.373 | -0.0971 | -0.116 | -0.0409
12 | TACTGAC | 0.0177 | -0.0637 | -0.201 | 0.496 | -0.0595 | 0.235 | 0.11 | -0.0391 | 0.0908
13 | AACCGCA | -0.101 | -0.0922 | -0.386 | -1.39 | -0.0748 | -1.09 | -0.225 | -0.0234 | -0.0425
14 | TTTACAG | 0.07 | -0.0555 | -0.833 | -2.01 | 0.0251 | -1.14 | 0.114 | -0.0264 | 0.0168
15 | GGAACGT | -0.0651 | 0.0829 | 0.831 | 1.98 | -0.0447 | 2.16 | 0.135 | -0.042 | 0.19
16 | AAGGGCT | -0.0233 | -0.0176 | 0.137 | 0.774 | -0.0695 | 1.07 | 0.0375 | -0.00367 | 0.019
17 | ACACCCT | -0.204 | 0.0537 | -0.172 | -1.81 | 0.0302 | -0.176 | -0.175 | -0.14 | -0.0336
18 | GGGTGAG | 0.176 | 0.137 | 0.781 | 1.84 | 0.0773 | 1.9 | 0.263 | 0.0794 | 0.159
19 | CGGCTTG | -0.0613 | -0.0353 | -0.0689 | 0.518 | 0.024 | 1.4 | 0.0104 | -0.0925 | -0.0233
20 | TGCAGGG | 0.0443 | 0.0346 | -0.0301 | 0.325 | -0.0316 | -0.163 | 0.1 | -0.115 | -0.103
21 | TTTGAAG | 0.219 | 0.0143 | -0.643 | -0.485 | 0.13 | -1.09 | 0.317 | 0.00356 | -0.0229
22 | CATCAGT | -0.0145 | 0.0465 | -0.568 | -1.4 | -0.0236 | -1.24 | -0.0392 | -0.0215 | -0.126
23 | CGAAGTC | 0.0689 | 0.00584 | -0.0941 | -0.0999 | 0.0394 | -0.352 | 0.0611 | -0.00488 | -0.0387
24 | CATAGTG | 0.0255 | -0.05 | -0.626 | -0.468 | 0.0882 | -1.1 | 0.0981 | 0.189 | -0.148
25 | GTATGGA | -0.0324 | 0.0958 | 0.296 | 0.666 | -0.0817 | 0.722 | 0.0533 | -0.0104 | 0.0597
26 | AACCTTA | 0.00671 | -0.0889 | -0.202 | -2.06 | -0.0737 | -0.481 | -0.412 | -0.0513 | -0.151
27 | GTATATC | 0.117 | 0.125 | 0.375 | 0.956 | 0.127 | 1.68 | 0.085 | 0.0977 | 0.212
28 | GATATTA | 0.000441 | -0.000713 | 0.254 | 0.213 | 0.0653 | 1.08 | -0.0103 | 0.0251 | 0.02
29 | GGCGTTC | 0.133 | 0.0758 | 0.577 | 1.18 | 0.0232 | 1.6 | 0.187 | 0.0341 | 0.17
30 | CGGCCCC | -0.00491 | 0.0663 | 0.299 | 0.507 | 0.0655 | 0.473 | -0.0861 | -0.0935 | 0.112
